Values marked as one replicate rest on one cluster of the flow cell; about a third of the high ones do not repeat.
The sequences below were run on ATP (assay: switch fluorescence ratio, 500 uM ATP over buffer (Cy3 cluster intensity, sum of 5 cycles each) (fold (ratio)); higher = stronger signal-on switching upon ATP binding; sequences stand for … in TCGTCGGCAGCGTCAGATGTGTATAAGAGACAGTTTTTTTTTTTTTTTTTTTTTTTTT…TC). Details: aptamer strand: ATP DNA aptamer (quencher-CACCTGGGGGAGTATTGCGGAGGAAGG + anchor), 100 nM annealed; ATP concentration: 500 uM; one replicate.
In short: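 The fluorescence ratio divides summed target-cycle Cy3 intensity by summed buffer-cycle Cy3 intensity for each cluster and is averaged per switch-domain sequence. Cy3-labelled switching-strand clusters on a modified Illumina MiSeq flow-cell were annealed to 100 nM quencher-labelled ATP aptamer, then imaged in selection buffer and again after 15 min with 500 uM ATP at 22 °C. Five such cycles were run, with NaOH stripping and re-annealing between them, and clusters outside 100-1000 RFU were excluded.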
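Note: ATP exposure 15 min at 22 °C before imaging.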

Sequence | switch fluorescence ratio
ACGATTACTC | 1.38
ACGATTCGGG | 1.02
ACGATTGGCA | 1.03
ACGATTGTGC | 1.02
ACGCACACCG | 1.57
ACGCACTAAT | 1.4
ACGCACTCAT | 1.47
ACGCATAGAT | 1.16
ACGCATCTGG | 1.09
ACGCATTGAC | 4.34
ACGCCCAGAA | 1.04
ACGCCCGATT | 1.09
ACGCCGGGGA | 1.05
ACGCGAGCAT | 1
ACGCGATGGT | 1.08
ACGCGCTTCG | 1.03
ACGCGGCCTA | 1.01
ACGCGGTCGC | 1
ACGCTAGTTG | 0.999
ACGCTCACCT | 1.45
ACGCTCCACC | 1.15
ACGCTCTAAC | 1.59
ACGCTGATTC | 1.21
ACGCTGATTG | 1.03
ACGCTGTTCT | 1.02

Sequence | switch fluorescence ratio
ACGCTTAGGA | 1.08
ACGCTTATGC | 1.84
ACGCTTTTCG | 0.985
ACGGAACGGC | 1
ACGGAACTGT | 1.42
ACGGACAGTG | 0.988
ACGGACCTCT | 1.31
ACGGACGCGC | 1.29
ACGGACGGCT | 1.14
ACGGAGGTCC | 1.01
ACGGAGTCAT | 1.26
ACGGAGTGGT | 1.02
ACGGATCGGG | 1.02
ACGGATCTCG | 0.99
ACGGATGGTT | 0.972
ACGGCATT | 0.986
ACGGCCCGTG | 1.04
ACGGCCGCGA | 0.902
ACGGCCTAGG | 1.04
ACGGCCTGTG | 1.01
ACGGCGACTA | 1.13
ACGGCGCCCA | 1.04
ACGGCGGCGC | 1.04
ACGGCGGTGA | 1.01
ACGGCTACCT | 1.37

Sequence | switch fluorescence ratio
ACGGCTTCAC | 1.02
ACGGGACAGT | 1.18
ACGGGATCCT | 1.03
ACGGGATCTT | 0.995
ACGGGCCTGC | 1.09
ACGGGCGCAA | 1.34
ACGGGCGGAA | 0.979
ACGGGCTACC | 1.08
ACGGGGAACC | 1.06
ACGGGGCATA | 1.1
ACGGGGGTGG | 1.06
ACGGGGTCCT | 1
ACGGGTATCG | 1.03
ACGGGTGTGT | 1.04
ACGGTAACCA | 1.26
ACGGTAATCG | 0.999
ACGGTAATCT | 1.16
ACGGTAGCTT | 1.14
ACGGTGCGTG | 1.08
ACGGTGCTGG | 0.964
ACGGTTCGTT | 0.95
ACGGTTCTAC | 1.07
ACGGTTTAAA | 1.06
ACGTAAAATG | 1.07
ACGTAAACTT | 1.11

Sequence | switch fluorescence ratio
ACGTAAGGAA | 1.03
ACGTAATGCG | 1.04
ACGTAATTTG | 1.16
ACGTACCGAA | 1.53
ACGTACGGG | 1.67
ACGTAGACAT | 1.18
ACGTAGCTAG | 1.47
ACGTAGGAAC | 1.09
ACGTAGGGGC | 1.1
ACGTAGTTTA | 1.01
ACGTATATGT | 1.16
ACGTATGGCC | 1.08
ACGTCATAGG | 1.22
ACGTCATTTA | 1.17
ACGTCCATC | 1.12
ACGTCCTGGA | 0.977
ACGTCGGCCG | 0.985
ACGTCTAAGT | 1.05
ACGTCTTCTG | 1.04
ACGTCTTGTG | 0.951
ACGTGCGTTA | 1.02
ACGTGGACGT | 1.01
ACGTGGCTGT | 1.01
ACGTGGGAC | 1.18
ACGTGGTGCG | 0.939

— the supplement of paper PMC10126150
